# This is one part of the list. These are noisy estimates, calculated here from bound and input reads.
# Target: T1, Pho4 (S. cerevisiae) (UniProt P07270)
# T1 sequence: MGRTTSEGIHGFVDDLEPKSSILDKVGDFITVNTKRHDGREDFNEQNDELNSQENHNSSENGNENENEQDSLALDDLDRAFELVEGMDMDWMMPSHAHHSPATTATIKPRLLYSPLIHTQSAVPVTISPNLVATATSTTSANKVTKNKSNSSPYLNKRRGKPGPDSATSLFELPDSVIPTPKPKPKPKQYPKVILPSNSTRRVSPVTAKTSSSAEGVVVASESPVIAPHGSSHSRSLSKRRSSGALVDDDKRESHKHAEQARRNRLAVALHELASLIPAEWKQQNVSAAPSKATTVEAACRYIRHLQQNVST
# Experiment: relative binding free energy (BET-seq); higher = weaker binding
# Conditions: reference: library average
row,Sequence,relative binding free energy [kcal/mol]
1,TGGCACACGTGGTTAG,-0.11
2,ATTCGCACGTGGTGAT,-0.07
3,GGGAGCACGTGAAGAG,0.05
4,TGCTTCACGTGGTTGC,0.23
5,ATATGCACGTGGAGAT,-0.08
6,TTAGACACGTGGGGAG,-0.17
7,TTATGCACGTGAGGTT,0.27
8,TATTCCACGTGGTTGA,-0.02
9,AAGTTCACGTGTTTGC,0.19
10,ATAGTCACGTGAGGGG,0.24
11,GGTTACACGTGGTAGA,0.18
12,AATTACACGTGTAATA,0.27
13,GAAGTCACGTGGAGCT,0.21
14,AACGTCACGTGTGATG,0.24
15,GGAATCACGTGGGTGA,0.01
16,CTGGGCACGTGGGATC,-0.13
17,CCGGGCACGTGGTGCG,-0.23
18,GACGGCACGTGTGGGG,0.06
19,GCAGGCACGTGGGTTT,-0.16
20,AGGGTCACGTGTTGTA,0.12
21,CGGAACACGTGGGTTG,-0.17
22,AGGGTCACGTGTTGGG,0.21
23,AATTCCACGTGTTTAG,0.09
24,TTATTCACGTGAGAAG,0.48
25,AGGATCACGTGGGACG,0.08

row,Sequence,relative binding free energy [kcal/mol]
1,ATAATCACGTGGGATG,-0.1
2,TTGTTCACGTGGAGTT,0.25
3,ATGCACACGTGGGGGG,-0.12
4,GAATTCACGTGTTTCG,0.38
5,TTAGTCACGTGTCAGT,-0.01
6,TATGTCACGTGTAATT,0.17
7,TTACGCACGTGGAGTT,-0.07
8,CGAGGCACGTGGGTGG,-0.18
9,TTATACACGTGATGGG,0.17
10,GGAATCACGTGGTGAT,0.14
11,TGGGTCACGTGAGGCC,0.34
12,AGATGCACGTGCGAGG,-0.08
13,TTTGGCACGTGTTGAA,-0.13
14,AGTGGCACGTGAGTTC,0.07
15,TTCGTCACGTGGATTG,0.15
16,TGTGGCACGTGATAGG,0
17,TGGTACACGTGGTGCG,0
18,TTGTACACGTGCGGGG,0.07
19,TTTTACACGTGTCGAG,0.14
20,TAGTTCACGTGAGCTT,0.22
21,CTTTTCACGTGGTGTT,0.12
22,GTCGACACGTGGAGGG,0.18
23,CGGTTCACGTGGAAGG,0.32
24,TTGTGCACGTGGGTTC,0.01
25,TTGATCACGTGCTTTA,0.06

row,Sequence,relative binding free energy [kcal/mol]
1,TAAGGCACGTGCTGGT,-0.19
2,GGGCACACGTGGTAGA,0.15
3,GGAGTCACGTGTTGTA,0.14
4,AGTTACACGTGTATAT,0
5,TGATACACGTGTGCGG,0.01
6,ATGGGCACGTGCATGA,-0.11
7,GGTGACACGTGCTGGA,-0.02
8,CGATGCACGTGGGCTT,-0.01
9,TGTTACACGTGAAAGG,0.21
10,GGTTGCACGTGTGGAG,0.06
11,TGGAGCACGTGGCAGT,-0.22
12,TACCTCACGTGGGGGT,0.07
13,CTGGTCACGTGAGTAT,0.31
14,GAGTACACGTGATTTT,0.33
15,ATTGTCACGTGTCTTA,0.12
16,TTTTGCACGTGTGCTG,0.04
17,TTTCGCACGTGATGTC,0.07
18,TTAGCCACGTGTATAG,-0.02
19,TAATGCACGTGTCGGA,0.01
20,GAGGACACGTGGGTAT,0
21,TGGCTCACGTGTTCGT,0.15
22,GGGGTCACGTGTGAGG,0.26
23,AATCGCACGTGATTTT,0.08
24,TTATCCACGTGTAGTT,0.03
25,AATTGCACGTGAGGCG,0.1

row,Sequence,relative binding free energy [kcal/mol]
1,TTTTGCACGTGGTCCT,-0.08
2,ATGGTCACGTGATGAA,0.16
3,TCATTCACGTGTGTTA,0.32
4,TAACGCACGTGGGTGG,-0.32
5,GGGTGCACGTGATTGG,0.32
6,CCTGTCACGTGTGTGG,0.02
7,ATCGTCACGTGTCGGG,0.02
8,AAGGTCACGTGGTACG,-0.02
9,TACGGCACGTGAGGTT,0.12
10,ATTGTCACGTGACTAT,0.22
11,TGTTTCACGTGTTTGG,0.26
12,GTTGGCACGTGTGCAC,-0.02
13,ATCTTCACGTGAGGAG,0.44
14,ATTGGCACGTGGTAAT,-0.06
15,ATGATCACGTGTGGCG,0.03
16,TTGGTCACGTGCACTG,0.09
17,TGCCGCACGTGTTTTT,-0.05
18,GCTTTCACGTGTATGA,0.35
19,AGGGACACGTGTGATG,0.04
20,GTGCTCACGTGAGTGC,0.3
21,TGTATCACGTGGGGGT,0.05
22,TTGAGCACGTGGTTCG,-0.04
23,ATGTACACGTGGGATT,-0.15
24,CTAAGCACGTGTTTTT,-0.05
25,CTCTGCACGTGTAGGG,0.02

row,Sequence,relative binding free energy [kcal/mol]
1,TGTTTCACGTGAGATG,0.35
2,TAGTTCACGTGTCGGT,0.27
3,TATGGCACGTGGAAAT,0.09
4,GGTTTCACGTGCGGAT,0.27
5,GCGTACACGTGGATGT,0.1
6,GTTTACACGTGGGTCT,0.08
7,TGATACACGTGCTTTT,0.01
8,GGGAGCACGTGGAGAG,-0.08
9,TACGTCACGTGTCTGT,0.06
10,CTAGGCACGTGGGGTC,-0.24
11,TTGAACACGTGTTTTA,-0.03
12,TTTTCCACGTGGTGTG,-0.04
13,AGAGCCACGTGTGGTA,-0.07
14,TATCGCACGTGTCTGG,-0.08
15,TGTATCACGTGTATCT,-0.04
16,TTTTTCACGTGAGGAG,0.46
17,GGTTTCACGTGTGTGT,0.39
18,GGTCACACGTGTGGAG,0.07
19,GTCTTCACGTGATTGT,0.32
20,TGAAGCACGTGGTGGG,-0.16
21,GTACTCACGTGTTTAT,0.28
22,AGTTTCACGTGAATTT,0.37
23,ACTTGCACGTGTCGGG,0.15
24,GTGGCCACGTGGTGCA,-0.12
25,AAGGGCACGTGCGTGG,-0.17

row,Sequence,relative binding free energy [kcal/mol]
1,AGGCGCACGTGTGGTG,-0.03
2,TGCGGCACGTGTAGTA,-0.05
3,CGTCGCACGTGTGTGT,-0.13
4,GTAATCACGTGTAAGG,0.23
5,CGGTTCACGTGGTTCG,0.12
6,TAGGCCACGTGCGGGT,-0.21
7,CTGTTCACGTGTCGGT,0.24
8,GTTGACACGTGGGTAA,-0.12
9,AGATCCACGTGGGTTT,-0.02
10,GGCATCACGTGTAGTA,0.18
11,AGTAGCACGTGGAATT,0.08
12,GTTATCACGTGGTAAT,0.06
13,GGTGACACGTGTAGCA,0.11
14,AATTTCACGTGATATT,0.26
15,TAGGGCACGTGAGGGG,0.16
16,GTATTCACGTGATGTA,0.38
17,GCGGACACGTGGGGCT,-0.01
18,TTGATCACGTGAGGGC,0.43
19,TTTATCACGTGGTCTG,0.04
20,TGGCTCACGTGTGGGG,0.21
21,GAGTGCACGTGCGGGG,0.02
